From US20250381289A1 (Genmab, published 2025)

T1: Human cMET
T1 construct: also called human cMET recombinant protein
T1 chain: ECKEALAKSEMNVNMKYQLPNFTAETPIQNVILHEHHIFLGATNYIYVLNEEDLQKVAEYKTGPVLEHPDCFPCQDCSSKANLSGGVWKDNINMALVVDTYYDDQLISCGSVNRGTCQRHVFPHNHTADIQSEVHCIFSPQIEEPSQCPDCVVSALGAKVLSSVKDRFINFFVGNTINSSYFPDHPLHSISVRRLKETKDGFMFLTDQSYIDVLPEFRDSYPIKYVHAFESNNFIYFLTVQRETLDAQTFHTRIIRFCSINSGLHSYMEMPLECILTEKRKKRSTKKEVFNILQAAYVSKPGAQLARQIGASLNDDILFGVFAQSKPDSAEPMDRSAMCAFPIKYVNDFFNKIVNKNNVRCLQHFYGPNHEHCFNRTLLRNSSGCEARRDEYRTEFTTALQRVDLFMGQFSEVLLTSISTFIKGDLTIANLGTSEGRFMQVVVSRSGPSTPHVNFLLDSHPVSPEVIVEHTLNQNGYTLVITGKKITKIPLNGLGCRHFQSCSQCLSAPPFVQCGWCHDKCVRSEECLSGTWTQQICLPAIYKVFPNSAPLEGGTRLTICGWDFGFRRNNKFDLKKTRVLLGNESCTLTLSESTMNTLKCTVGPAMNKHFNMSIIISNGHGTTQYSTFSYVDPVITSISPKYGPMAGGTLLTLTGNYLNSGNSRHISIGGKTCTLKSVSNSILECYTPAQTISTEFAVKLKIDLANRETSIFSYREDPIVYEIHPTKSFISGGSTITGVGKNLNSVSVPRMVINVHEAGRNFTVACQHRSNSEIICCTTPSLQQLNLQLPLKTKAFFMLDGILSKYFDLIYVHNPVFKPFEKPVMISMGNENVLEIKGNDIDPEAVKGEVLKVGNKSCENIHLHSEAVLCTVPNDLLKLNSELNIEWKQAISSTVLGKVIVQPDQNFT

B1: Bsab 67 (bispecific antibody, human IgG1, kappa, L234A L235A)
chain 1: AIQLTQSPESLSASVGDRVTITCRASQDISSALVWYQQKPGKAPKLLIYDASSLESGVPDRFSGSESGTDFTLTISSLQPEDFATYYCQQFNSYPLTFGGGTKVEIKRTVAAPSVFIFPPSDEQLKSGTASVVCLLNNFYPREAKVQWKVDNALQSGNSQESVTEQDSKDSTYSLSSTLTLSKADYEKHKVYACEVTHQGLSSPVTKSFNRGECGGGGSGGGGSGGGGSGGGGSGGGGSGGGGSGGGGSGGGGSQVQLVESGGGVVQPGRSLRLSCAASGFTFSTYGMHWVRQAPGQGLEWVAVIWDDGSYKYYGDSVKGRFTISRDNSKNTLYLQMNSLRAEDTAVYYCARDGITMVRGVMKDYFDYWGQGTLVTVSSASTKGPSVFPLAPSSKSTSGGTAALGCLVKDYFPEPVTVSWNSGALTSGVHTFPAVLQSSGLYSLSSVVTVPSSSLGTQTYICNVNHKPSNTKVDKKV[omitted - human IgG1 Fc with L234A L235A Y349C T366W (EU numbers)]
chain 2: DIVMTQSPDSLAVSLGERATINCKSSESVDSYANSFLHWYQQKPGQPPKLLIYRASTRESGVPDRFSGSGSGTDFTLTISSLQAEDVAVYYCQQSKEDPLTFGGGTKVEIKRTVAAPSVFIFPPSDEQLKSGTASVVCLLNNFYPREAKVQWKVDNALQSGNSQESVTEQDSKDSTYSLSSTLTLSKADYEKHKVYACEVTHQGLSSPVTKSFNRGECGGGGSGGGGSGGGGSGGGGSGGGGSGGGGSGGGGSGGGGSQVQLVQSGAEVKKPGASVKVSCKASGYIFTAYTMHWVRQAPGQGLEWMGWIKPNNGLANYAQKFQGRVTMTRDTSISTAYMELSRLRSDDTAVYYCARSEITTEFDYWGQGTLVTVSSASTKGPSVFPLAPSSKSTSGGTAALGCLVKDYFPEPVTVSWNSGALTSGVHTFPAVLQSSGLYSLSSVVTVPSSSLGTQTYICNVNHKPSNTKVDKKVEPKSCDKTHTCPPCPAPEAAGGPSVFLFPPKPKDTLMISRTPEVTCVVVDVSHEDPEVKFNWYVDGVEVHNAKTKPREEQYNSTYRVVSVLTVLHQDWLNGKEYKCKVSNKALPAPIEKTISKAKGQPREPQVYTLPPCRDELTKNQVSLSCAVKGFYPSDIAVEWESNGQPENNYKTTPPVLDSDGSFFLVSKLTVDKSRWQQGNVFSCSVMHEALHNHYTQKSLSLSPGK
notes: two chains, one knob and one hole; also called Basb 67
B2: Bsab 67-LD038 (5) (bispecific antibody, human IgG1, kappa, L234A L235A)
chain 1: B1 chain 1
chain 2: B1 chain 2
modifications: LD038 drug-linker coupled after TCEP reduction; DAR 5.1 by LC-MS; sites not given
notes: also called Basb 67-LD038 (5)

Experiments:
[1] = molecular target: T2, Human cMET extracellular domain (ECD) linked to His tag (human, UniProt P08581 25-932); assay: BLI (Octet RED), antibody on anti-human IgG Fc biosensors, ECD-His in solution, 1:1 model
T2 construct: extracellular domain; not shown: His tag

[2] = molecular target: T3, Human EGFR extracellular domain (ECD) linked to His tag (human, UniProt P00533 fragment); assay: as above
T3 construct: extracellular domain; not shown: His tag

[3] = molecular target: T4, Cynomolgus EGFR extracellular domain (ECD) linked to His tag (cynomolgus, UniProt A0A2K5WK39 25-645); assay: as above
T4 construct: extracellular domain; also called Cyno EGFR; monkey EGFR; not shown: His tag

[4] = molecular target: T5, Cynomolgus cMET extracellular domain (ECD) linked to His tag (cynomolgus, UniProt O95905); assay: as above
T5 construct: extracellular domain; also called Cyno cMET; monkey cMET

[5] = molecular target: T6, Rat EGFR extracellular domain (ECD) linked to His tag (rat, UniProt A0ABK0LZB0 35-651); assay: BLI (Octet RED), antibody on anti-human IgG Fc biosensors, ECD-His in solution
T6 construct: extracellular domain; not shown: His tag

[6] = molecular target: T7, Rat cMET extracellular domain (ECD) linked to His tag (rat, UniProt P97523 25-935); assay: as above
T7 construct: extracellular domain; not shown: His tag
T7 sequence (P97523 25-935): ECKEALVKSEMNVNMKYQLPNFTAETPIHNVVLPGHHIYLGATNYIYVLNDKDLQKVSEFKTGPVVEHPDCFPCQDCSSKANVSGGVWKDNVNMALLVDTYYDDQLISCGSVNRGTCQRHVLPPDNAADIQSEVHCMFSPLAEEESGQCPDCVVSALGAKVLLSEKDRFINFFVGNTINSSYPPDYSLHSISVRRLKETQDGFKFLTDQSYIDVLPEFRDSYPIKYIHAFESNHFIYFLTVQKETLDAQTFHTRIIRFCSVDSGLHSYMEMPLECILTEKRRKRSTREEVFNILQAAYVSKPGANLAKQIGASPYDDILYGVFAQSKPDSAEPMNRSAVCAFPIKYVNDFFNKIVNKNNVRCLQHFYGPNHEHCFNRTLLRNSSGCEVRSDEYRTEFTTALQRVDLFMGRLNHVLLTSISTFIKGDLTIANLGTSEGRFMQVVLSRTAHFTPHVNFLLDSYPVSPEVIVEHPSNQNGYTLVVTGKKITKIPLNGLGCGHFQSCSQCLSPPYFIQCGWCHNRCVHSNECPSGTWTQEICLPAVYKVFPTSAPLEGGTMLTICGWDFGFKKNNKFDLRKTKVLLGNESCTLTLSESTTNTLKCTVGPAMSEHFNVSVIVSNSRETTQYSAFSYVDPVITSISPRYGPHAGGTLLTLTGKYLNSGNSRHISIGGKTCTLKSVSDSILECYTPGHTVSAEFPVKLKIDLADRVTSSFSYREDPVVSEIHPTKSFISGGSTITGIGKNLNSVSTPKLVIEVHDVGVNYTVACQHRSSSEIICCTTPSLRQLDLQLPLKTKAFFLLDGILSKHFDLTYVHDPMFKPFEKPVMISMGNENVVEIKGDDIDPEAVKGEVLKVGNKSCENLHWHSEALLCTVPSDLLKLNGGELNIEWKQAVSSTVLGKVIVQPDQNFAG

[7] = molecular target: T8, Mouse cMET extracellular domain (ECD) linked to His tag (mouse, UniProt P16056 25-931); assay: as above
T8 construct: extracellular domain; not shown: His tag
T8 sequence (P16056 25-931): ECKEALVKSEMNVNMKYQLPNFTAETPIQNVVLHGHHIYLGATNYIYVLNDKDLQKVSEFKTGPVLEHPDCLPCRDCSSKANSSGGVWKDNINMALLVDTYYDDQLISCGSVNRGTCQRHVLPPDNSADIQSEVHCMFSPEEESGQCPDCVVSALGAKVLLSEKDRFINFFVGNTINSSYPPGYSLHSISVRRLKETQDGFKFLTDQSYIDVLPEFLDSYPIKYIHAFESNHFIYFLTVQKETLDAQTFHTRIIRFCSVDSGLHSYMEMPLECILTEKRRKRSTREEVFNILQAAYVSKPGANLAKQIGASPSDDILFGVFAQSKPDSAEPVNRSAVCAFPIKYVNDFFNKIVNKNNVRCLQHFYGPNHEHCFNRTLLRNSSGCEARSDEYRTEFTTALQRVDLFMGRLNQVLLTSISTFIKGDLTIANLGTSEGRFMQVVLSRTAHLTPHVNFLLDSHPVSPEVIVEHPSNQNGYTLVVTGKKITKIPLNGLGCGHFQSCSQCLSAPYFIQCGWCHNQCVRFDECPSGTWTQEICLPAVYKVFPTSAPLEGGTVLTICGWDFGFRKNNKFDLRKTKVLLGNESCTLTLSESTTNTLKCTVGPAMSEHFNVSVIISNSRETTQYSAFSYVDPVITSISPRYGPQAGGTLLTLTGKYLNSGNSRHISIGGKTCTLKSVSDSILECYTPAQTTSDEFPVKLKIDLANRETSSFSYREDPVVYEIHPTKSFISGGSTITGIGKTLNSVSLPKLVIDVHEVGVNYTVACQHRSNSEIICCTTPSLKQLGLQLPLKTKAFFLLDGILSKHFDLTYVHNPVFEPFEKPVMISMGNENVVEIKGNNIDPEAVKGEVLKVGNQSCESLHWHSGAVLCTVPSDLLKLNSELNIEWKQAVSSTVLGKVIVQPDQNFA

Human EGFR = molecular target: T9, Human EGFR (human, UniProt P00533); assay: ELISA, plate coated with 100 ng/well human EGFR recombinant protein, HRP anti-human Fc, OD450
T9 construct: recombinant protein coated on the ELISA plate; also called human EGFR recombinant protein

Human cMET [8] = molecular target: T1, Human cMET; assay: ELISA, plate coated with 100 ng/well human cMET recombinant protein, HRP anti-human Fc, OD450
Human cMET [9] = molecular target: T10, Human cMET (human); assay: ELISA, coated human cMET, anti-human Fc-HRP
T10 construct: recombinant protein; also called human cMET recombinant protein

[10] = molecular target: T11, cMET on EGFR and cMET co-expressed tumor cell lines (UniProt P08581); assay: flow cytometry on ACHN cells (co-express EGFR and cMET), PE anti-human Fc; signal of the whole bispecific, not resolved by arm
T11 construct: whole, on cells

[11] = molecular target: T12, EGFR on EGFR and cMET co-expressed tumor cell lines (UniProt P00533); assay: as above
T12 construct: whole, on cells

[12] = molecular target: T11, cMET on EGFR and cMET co-expressed …; assay: flow cytometry, EBC-1 cells (co-express EGFR and cMET; both arms contribute)
[13] = molecular target: T12, EGFR on EGFR and cMET co-expressed …; assay: as above

Binder	Kd [1]	Kd [2]	Kd [3]	Kd [4]	binding result [5]	binding result [6]	binding result [7]	EC50 (read off the curve) (Human EGFR)	EC50 (read off the curve) (Human cMET [8])	EC50 (read off the curve) (Human cMET [9])	EC50 (read off the curve) [10]	EC50 (read off the curve) [11]	EC50 (read off the curve) [12]	EC50 (read off the curve) [13]
B1	0.003 nM	4.4 nM	8.1 nM	0.003 nM	no binding (tested: 100 nM (highest concentration tested))	no binding (tested: 200 nM (highest concentration tested))	no binding (tested: 200 nM (highest concentration tested))	~0.1 nM	~0.2 nM	~2 nM	~3 nM	~3 nM	~3 nM	~3 nM
B2	0.002 nM	4.5 nM	9 nM	0.002 nM	no binding (tested: 100 nM (highest concentration tested))	no binding (tested: 200 nM (highest concentration tested))	no binding (tested: 200 nM (highest concentration tested))	~0.1 nM	~0.2 nM	–	~4 nM	~4 nM	–	–
